The source of these data is publication PMC12136788.

B1: chr19:14961309:14961997:-|three_prime_utr|ENSG00000105143|control|control|control (ssRNA)
RNA: GGGAGUUCUACAGUCCGACGAUCGAUUCACUUACCCACUCACCAACUCAUUCAUUCAUGUCUUUCUGGGAUGAUUUCAUCACUAGUUGACUUCCUUGUUCAUCUGUUCAUUCAUUCAUUCUUCUAUGCAUUGGUUAGUUCAUGCAACAGAGGAUUGAGCAUCA
B2: ENSG00000167767:stop:overlap|stop_codon|ENSG00000167767|stop_codon|NA|stop_codon (ssRNA)
RNA: GGGAGUUCUACAGUCCGACGAUCGCGCUGUGCAGUCCAGGUGCAAAACCGCCCCUUCCCUCCCCUACCCCUUAUGUUCCCUGUAGCUGCCUCCAGAUCAGGCCUCUCCAAGGCCCCCUCCCGAAAGAAGAAGGGCAGCAAAGGCAACAGAGGAUUGAGCAUCA
B3: chr8:27733518:27733645:-|3pUTR|ENSG00000147419|unk|FALSE|unique (ssRNA)
RNA: GGGAGUUCUACAGUCCGACGAUCGACCUUUUGAUUUUGAAGCAGACUAAAAUCUGACCAGACCACAAUGAAAAGUAUAAAAUUAGAAACUUAAAUUCCAAGCUAAAUUUCAGCUUUGACCCACCUAACUCCAGUGAAUAGGUGCAACAGAGGAUUGAGCAUCA
B4: chr22:46316300:46316401:+|CDS|ENSG00000075218|unk|total|mutant (ssRNA)
RNA: GGGAGUUCUACAGUCCGACGAUCGGCGGCCAGUGGCUGAACUCCAGUUGCGCUUGGUCAGAAUCUUCUCAAUUGAAUAAGACCCGAAGUAUCAGACGGCGAGAUUCCUGUCUAAAUUCCAAGACAAAGGUUAUGCCUACUCCUCAACAGAGGAUUGAGCAUCA
B5: chr4:138171397:138171528:-|3pUTR|ENSG00000151012|msi1|FALSE|unique (ssRNA)
RNA: GGGAGUUCUACAGUCCGACGAUCAUUAUGGCAAAGAGGAGAGAAAGAAAUUUAUUUUACAUUGACAUUGCAUUGCUUCCCCUUAGAUACCAAUUUAGAUAACAAACACUCAUGCUUUAAUGGAUUAUACCCAGAGCACUUUGACAACAGAGGAUUGAGCAUCA
B6: chr3:152462637:152462738:+|3pUTR|ENSG00000152601|msi1|total|mutant (ssRNA)
RNA: GGGAGUUCUACAGUCCGACGAUCGAACAACAUUGUCUUUCUUUUCCCGCACAGAGUUAUGCAUUCAAAGAUGCAUACCCCGUCCGUUUCCUAUAUAUUCAUGCCAUCUUGAAAAGACAGACUAUGGUGUAACCAUGAUUCUAUCAACAGAGGAUUGAGCAUCA
B7: chr1:93361585:93361687:+|3pUTR|ENSG00000117505|unk|FALSE|unique (ssRNA)
RNA: GGGAGUUCUACAGUCCGACGAUCUUUAACUUGUAGUUAUAGUUUACUUAUUGUUUUUAGAAUUACUUUUACAUUUUCCCAACUAGAUGGCCUAGAGUCCAACAUUACCUUUUGAGAUGACAUUAUUGUCUCCAUAAUUGAGUGCAACAGAGGAUUGAGCAUCA
B8: chr19:1925605:1925706:+|3pUTR|ENSG00000227500|msi1|FALSE|unique (ssRNA)
RNA: GGGAGUUCUACAGUCCGACGAUCUUUGGACACCCCAGGCUGCCACCCCUCCCCACCCGUUCACCCCCAGGAUGCUGUUGCUGUAGGACGCCUGCUGCCCUGGAGCCCUCCCCAGGAUGUGAGCCAGUCCCCUCGCUGGUACGGCAACAGAGGAUUGAGCAUCA
B9: chr4:137519872:137519973:-|3pUTR|ENSG00000189184|unk|FALSE|unique (ssRNA)
RNA: GGGAGUUCUACAGUCCGACGAUCAACUAUUCAUUUUUAGCUUUUGUCUCCAGUGCAUGAUCUCAUAUUUUUGCUUUUAUUUUUAGUAUAAGAACAUUUAUAAAAUCAUAUUUUUGUUACUGCAAUUGUUUUAUUUGUUGUGUGCAACAGAGGAUUGAGCAUCA
B10: chr2:9585027:9585123:-|3pUTR|ENSG00000134308|msi1_unk|total|mutant (ssRNA)
RNA: GGGAGUUCUACAGUCCGACGAUCGGAAAACUUCAUUCCUUGAUUUGUGUUUGUCUUGGCCUUCCUGGUGUGCAGUACUGCUGCCGAAAAGUAUUAACCGCUUCAUUUCAUAUAAACAUAAGUAACUCCCAAACACUUAUGCCGCAACAGAGGAUUGAGCAUCA
B11: chrX:131089436:131089558:+|3pUTR|ENSG00000147256|unk|FALSE|unique (ssRNA)
RNA: GGGAGUUCUACAGUCCGACGAUCGGGAAACCUCAAGUGUAGGUCUAAUUAGUGUUUCUGGGAUCCAAAGUUAGAGGAAAAUUUAGAUUUUAUUGCCUGGAUCUGCUUUAAAGACAAUUGGUGUUUACACCCUCUUGUCAGCAACAACAGAGGAUUGAGCAUCA
B12: chr4:140550230:140550341:+|CDS|ENSG00000179387|unk|total|mutant (ssRNA)
RNA: GGGAGUUCUACAGUCCGACGAUCGAAUUUGACAAGUUUUGGUUUGAAGAAGAACCAGAAAGCAUUAUGUAUUUCAAUUUGUACCGAGAGAAGUUUCAUGAAAAGAUUAAAGGACUUUUACUGGAUUGUAAUGCCGCACUUACUCAACAGAGGAUUGAGCAUCA
B13: chr6:136278143:136278257:-|CDS|ENSG00000029363|unk|FALSE|unique (ssRNA)
RNA: GGGAGUUCUACAGUCCGACGAUCACAUCCGGUGAUAUUUGGCCUGGCCUUUCAGCUUAUGAUAAUAGUCCUAGAUCACCCCAUAGUCCUUCACCUAUUGCUACACCACCUAGUCAGAGUUCAUCUUGCUCUGAUGCUCCCAUGCAACAGAGGAUUGAGCAUCA
B14: chr12:24812190:24812291:-|3pUTR|ENSG00000060982|msi1|total|mutant (ssRNA)
RNA: GGGAGUUCUACAGUCCGACGAUCUUUACUAUCUCCUAUCCUGACCGGUGGAAGGUUUACUGAAUUGGAAAUUGGUUGACUAUCCGUUUUUAACUAAAAUGUGCAAUAACACAUUGCAGUUUCCUCAAACCCGUUUCCUAUGAUCAACAGAGGAUUGAGCAUCA
B15: chr1:40073325:40073426:-|3pUTR|ENSG00000131238|msi1|total|mutant (ssRNA)
RNA: GGGAGUUCUACAGUCCGACGAUCGAGGGAAGCCGCACCCAAAUUAAGUUGCUUAAGAGAGGAAAUGUACAUCUUGUAUAACUCCGGGAGCGAAGAAAAUGCCGGCGCGAAAGUGAAAAGUGAGGCAGCCCGUUCUUCCUAUUCCAACAGAGGAUUGAGCAUCA
B16: ENSG00000124766:be:win_1551|3pUTR|ENSG00000124766|bound_else_gene|NA|bound_elsewhere_windowed (ssRNA)
RNA: GGGAGUUCUACAGUCCGACGAUCCAGGGCUGGCUUCGCCCGCGUUCUCGUCGUCGGAUCAAGGAGCGCGGCGGCGUUUUGGACCCGCGCUCCCAUCCCCCACCUUCCCGGGCCGGGGACCCACUCUGCCCAGCCGGAGGGACGCAACAGAGGAUUGAGCAUCA
B17: chr1:92323927:92324037:+|CDS|ENSG00000122484|unk|FALSE|unique (ssRNA)
RNA: GGGAGUUCUACAGUCCGACGAUCAGUGCAGAGCAUUUUAAGAGAAAAUUUGCCAAAUCAAACCAAGUGUCUAGGUCAGUGUCUAGUUCAGUGCAGGUGUGUCCUGAAGUUGGAAAGAGAAACUUACUUAAAGUUUUGAAGGAGCAACAGAGGAUUGAGCAUCA
B18: chr7:99705035:99705499:-|three_prime_utr|ENSG00000160870|control|control|control (ssRNA)
RNA: GGGAGUUCUACAGUCCGACGAUCGUUUGCUCUUUAAGAAAGCUGUGCCCCAGAACACCAGAGACCUCAAAUUACUUUACAAAUAGAACCCUGAAAUGAAGACGGGCUUCAUCCAAUGUGCUGCAUAAAUAAUCAGGGAUUCUGCAACAGAGGAUUGAGCAUCA
B19: chr3:49657245:49657349:+|CDS|ENSG00000164061|unk|total|mutant (ssRNA)
RNA: GGGAGUUCUACAGUCCGACGAUCCAGCCGCCGUGGCAUCAAGAAGCGGCACUCCAUGCCACGCCUGCGGGAUGCCUGUGAGCCCGAGUCUGGGACUGAGCCCUGUGUGGUCAGGAGGAUUGCCGACAGCAGCGUGCAGACAGACAACAGAGGAUUGAGCAUCA
B20: chr4:57023444:57023561:+|CDS|ENSG00000047315|unk|total|mutant (ssRNA)
RNA: GGGAGUUCUACAGUCCGACGAUCGAAUUGGAGAGCACCAACCGACGCUAUACCAAGAGAGACUGCCGCACUUUUCUCAGAACCCGCGAGACGGGCAUUGUGGAUCAGGUUAUGGUAACUCUCAAUCAGGAAGGAUAUAAAUUUCAACAGAGGAUUGAGCAUCA
B21: chr5:136976780:136976881:-|3pUTR|ENSG00000152377|msi1|total|mutant (ssRNA)
RNA: GGGAGUUCUACAGUCCGACGAUCCUUAAAUCCGCAUGUUCCAAUCCAGUCGGCAUUGCCUGAAUACAGCCGCAUCAUACCUACCGUUGGUCUCCGAUAAGAAAUGAACUACUUGAUACCGCAAAGUCCUUUGGCUUCGUAAAUCAACAGAGGAUUGAGCAUCA
B22: chr4:174259701:174259819:-|CDS|ENSG00000164117|unk|total|mutant (ssRNA)
RNA: GGGAGUUCUACAGUCCGACGAUCAAAUCCACUUGGGGUCACUGUUCCAUAUACAAUAAGAACCCACCUUCCGGAUUUUCUUUCCGAAAAUUGUAUAUGCAGCUGGAUGAAGGCAGCCUCACCUUUAAUGCCAACCCAGAUGAGCAACAGAGGAUUGAGCAUCA

The list shows a part of the results.

This assay addresses T1, UNK ZnF1-6 (called full-length) (human, UniProt Q9C0B0 30-357).
T1 sequence: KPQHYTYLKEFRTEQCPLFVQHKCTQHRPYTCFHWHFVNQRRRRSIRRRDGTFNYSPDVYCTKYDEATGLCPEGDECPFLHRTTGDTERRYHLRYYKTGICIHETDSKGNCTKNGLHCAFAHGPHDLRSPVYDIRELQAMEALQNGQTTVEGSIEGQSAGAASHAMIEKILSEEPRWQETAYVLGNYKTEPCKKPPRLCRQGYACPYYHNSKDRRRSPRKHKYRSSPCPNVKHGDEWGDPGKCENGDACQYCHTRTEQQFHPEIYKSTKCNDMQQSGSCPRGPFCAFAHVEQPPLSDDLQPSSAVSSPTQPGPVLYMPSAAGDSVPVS
The experiment in a line: nsRBNS (natural sequence RNA bind-n-seq); RBNS binding buffer (assumed for nsRBNS): 25 mM Tris pH 7.5, 150 mM KCl, 3 mM MgCl2, 0.01% Triton X-100, 500 ug/ml BSA, 20 U/ml SUPERase-In, 4 C; UNK is unkempt and MSI1 is Musashi-1; names of the RNAs are library labels; protein concentration not given here; high values mean tight binding.
Molecule B1 gave a binding signal of 0.569 enrichment R.
Consider B2, for which the binding signal was found to be 2.49 enrichment R.
Molecule B3 came in with a binding signal of 1.97 enrichment R.
As for B4, the binding signal was 0.618 enrichment R.
For the molecule B5, the binding signal came to 73.9 enrichment R.
For the molecule B6, the binding signal was 0.302 enrichment R.
B7 displayed a binding signal of 152 enrichment R.
In turn, B8 had a binding signal of 1.65 enrichment R.
The value for B9 was 5.84 enrichment R.
The value for B10 was 0.375 enrichment R; that for B11 was 5.04 enrichment R.
B12 showed a binding signal of 0.619 enrichment R.
With B13, the binding signal amounted to 1.21 enrichment R.
Regarding B14, the binding signal turned out to be 0.274 enrichment R.
In the case of B15, the binding signal came out at 0.464 enrichment R.
B16 displayed a binding signal of 1.07 enrichment R.
As for B17, the binding signal stood at 0.468 enrichment R.
Molecule B18 displayed a binding signal of 0.659 enrichment R.
Turning to B19, the binding signal was 0.785 enrichment R.
The value for B20 was 0.541 enrichment R; that for B21 was 0.481 enrichment R; that for B22 was 0.452 enrichment R.
